According to the supplement of paper PMC4967469:

Legend:
Experiment in all cases: Viability of human cancer cell lines after 72 h of drug (GDSC screen)
Bryostatin 1 = compound: CCC/C=C/C=C/C(=O)O[C@H]1/C(=C/C(=O)OC)C[C@H]2C[C@H]([C@@H](C)O)OC(=O)C[C@H](O)C[C@@H]3C[C@H](OC(C)=O)C(C)(C)[C@](O)(C[C@@H]4C/C(=C/C(=O)OC)C[C@H](/C=C/C(C)(C)[C@]1(O)O2)O4)O3 [Bryostatin 1]; details: top dose 0.008 µM; top dose inferred
Protocol: (§1)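 Human cancer cell lines in 384-well plates, medium with 10% serum, drug for 72 h over a 256-fold dose range (nine 2-fold or five 4-fold steps up to the top dose). Adherent lines were fixed and stained with the nucleic acid dye Syto60, suspension lines read with resazurin; signal relative to control wells, capped at 0 and 100%. One two-parameter sigmoid per drug and line, fitted in a mixed model over all curves with the slope shared within a line.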

SGC0946 = compound: CC(C)N(CCCNC(=O)Nc1ccc(C(C)(C)C)cc1)C[C@H]1O[C@@H](n2cc(Br)c3c(N)ncnc32)[C@H](O)[C@@H]1O [SGC0946]; details: top dose 0.5 µM; top dose inferred
Protocol: as §1

GW-2580 = compound: COc1ccc(COc2ccc(Cc3cnc(N)nc3N)cc2OC)cc1 [GW-2580]; details: top dose 20 µM; top dose inferred
Protocol: as §1

Cell Line	AUC (Bryostatin 1)	IC50 (Bryostatin 1)	AUC (SGC0946)	IC50 (SGC0946)	AUC (GW-2580)	IC50 (GW-2580)
Daudi (Burkitt lymphoma, suspension)	0.99	> 8 nM	0.982	> 500 nM	0.991	> 20000 nM
GAMG (glioma, adherent)	0.985	> 8 nM	0.982	> 500 nM	0.974	> 20000 nM
GCT (soft tissue, adherent)	0.989	> 8 nM	0.988	> 500 nM	0.985	> 20000 nM
GP5d (large intestine, adherent)	0.989	> 8 nM	0.99	> 500 nM	0.986	> 20000 nM
H2591 (mesothelioma, adherent)	0.982	> 8 nM	0.98	> 500 nM	0.981	> 20000 nM
H2803 (mesothelioma, adherent)	0.976	> 8 nM	0.979	> 500 nM	0.968	> 20000 nM
H2804 (mesothelioma, adherent)	0.968	> 8 nM	0.982	> 500 nM	0.972	> 20000 nM
H2818 (mesothelioma, adherent)	0.988	> 8 nM	0.988	> 500 nM	0.988	> 20000 nM
H-EMC-SS (chondrosarcoma, adherent)	0.97	> 8 nM	0.951	> 500 nM	0.976	> 20000 nM
HCC1806 (breast, adherent)	0.958	> 8 nM	0.988	> 500 nM	0.989	> 20000 nM
HLE (liver, adherent)	0.988	> 8 nM	0.985	> 500 nM	0.975	> 20000 nM
HO-1-N-1 (head and neck, adherent)	0.987	> 8 nM	0.988	> 500 nM	0.986	> 20000 nM
HPAF-II (pancreas, adherent)	0.914	> 8 nM	0.978	> 500 nM	0.958	> 20000 nM
HSC-3 (head and neck, adherent)	0.989	> 8 nM	0.989	> 500 nM	0.988	> 20000 nM
HT-144 (melanoma, adherent)	0.977	> 8 nM	0.98	> 500 nM	0.982	> 20000 nM
HTC-C3 (thyroid, adherent)	0.944	> 8 nM	0.981	> 500 nM	0.975	> 20000 nM
HeLa (cervix, adherent)	0.967	> 8 nM	0.981	> 500 nM	0.988	> 20000 nM
IST-MES1 (mesothelioma, adherent)	0.951	> 8 nM	0.986	> 500 nM	0.982	> 20000 nM
J82 (bladder, adherent)	0.972	> 8 nM	0.987	> 500 nM	0.988	> 20000 nM
JAR (urogenital system, adherent)	0.984	> 8 nM	0.986	> 500 nM	0.968	> 20000 nM
JJN-3 (haematopoietic neoplasm, suspension)	0.983	> 8 nM	0.992	> 500 nM	0.986	> 20000 nM
KG-1 (acute myeloid leukaemia, suspension)	0.99	> 8 nM	0.985	> 500 nM	0.99	> 20000 nM
KOSC-2 (head and neck, adherent)	0.983	> 8 nM	0.984	> 500 nM	0.985	> 20000 nM
KP-4 (pancreas, adherent)	0.98	> 8 nM	0.987	> 500 nM	0.953	> 20000 nM
KYSE-180 (oesophagus, adherent)	0.982	> 8 nM	0.987	> 500 nM	0.984	> 20000 nM

Cell Line	AUC (Bryostatin 1)	IC50 (Bryostatin 1)	AUC (SGC0946)	IC50 (SGC0946)	AUC (GW-2580)	IC50 (GW-2580)
KYSE-270 (oesophagus, adherent)	0.977	> 8 nM	0.99	> 500 nM	0.98	> 20000 nM
L-363 (myeloma, suspension)	0.976	> 8 nM	0.986	> 500 nM	0.99	> 20000 nM
LC-2-ad (lung adenocarcinoma, adherent)	0.98	> 8 nM	0.984	> 500 nM	0.981	> 20000 nM
LN-229 (glioma, adherent)	0.954	> 8 nM	0.983	> 500 nM	0.988	> 20000 nM
LNCaP-Clone-FGC (prostate, adherent)	0.973	> 8 nM	0.862	> 500 nM	0.955	> 20000 nM
LP-1 (myeloma, suspension)	0.99	> 8 nM	0.993	> 500 nM	0.989	> 20000 nM
LU-99A (large cell lung carcinoma, adherent)	0.918	> 8 nM	0.961	> 500 nM	0.983	> 20000 nM
M059J (glioma, adherent)	0.688	1.76 nM	0.982	> 500 nM	0.984	> 20000 nM
MCF7 (breast, adherent)	0.936	> 8 nM	0.971	> 500 nM	0.982	> 20000 nM
MDA-MB-157 (breast, adherent)	0.96	> 8 nM	0.987	> 500 nM	0.978	> 20000 nM
MDA-MB-231 (breast, adherent)	0.985	> 8 nM	0.959	> 500 nM	0.971	> 20000 nM
MFE-319 (endometrium, adherent)	0.982	> 8 nM	0.988	> 500 nM	0.986	> 20000 nM
MKN1 (stomach, adherent)	0.98	> 8 nM	0.985	> 500 nM	0.983	> 20000 nM
ML-1 (thyroid, adherent)	0.908	> 8 nM	0.982	> 500 nM	0.98	> 20000 nM
MV-4-11 (leukaemia, suspension)	0.98	> 8 nM	0.965	> 500 nM	0.985	> 20000 nM
NCI-H196 (small cell lung carcinoma, adherent)	0.985	> 8 nM	0.94	> 500 nM	0.945	> 20000 nM
NCI-H460 (large cell lung carcinoma, adherent)	0.967	> 8 nM	0.989	> 500 nM	0.987	> 20000 nM
NCI-H522 (lung adenocarcinoma, adherent)	0.913	> 8 nM	0.979	> 500 nM	0.979	> 20000 nM
NCI-H1299 (large cell lung carcinoma, adherent)	0.869	> 8 nM	0.98	> 500 nM	0.974	> 20000 nM
NCI-H1573 (lung adenocarcinoma, adherent)	0.99	> 8 nM	0.989	> 500 nM	0.978	> 20000 nM
NCI-H1793 (lung adenocarcinoma, adherent)	0.967	> 8 nM	0.976	> 500 nM	0.978	> 20000 nM
NCI-H1915 (large cell lung carcinoma, adherent)	0.988	> 8 nM	0.986	> 500 nM	0.986	> 20000 nM
NCI-H1975 (lung adenocarcinoma, adherent)	0.982	> 8 nM	0.969	> 500 nM	0.983	> 20000 nM
NCI-H2030 (lung adenocarcinoma, adherent)	0.85	7.38 nM	0.98	> 500 nM	0.981	> 20000 nM
NCI-H2085 (lung adenocarcinoma, adherent)	0.985	> 8 nM	0.985	> 500 nM	0.983	> 20000 nM

Cell Line	AUC (Bryostatin 1)	IC50 (Bryostatin 1)	AUC (SGC0946)	IC50 (SGC0946)	AUC (GW-2580)	IC50 (GW-2580)
NCI-H2170 (lung squamous cell carcinoma, adherent)	0.958	> 8 nM	0.986	> 500 nM	0.985	> 20000 nM
NUGC-3 (stomach, adherent)	0.968	> 8 nM	0.982	> 500 nM	0.983	> 20000 nM
OAW-28 (ovary, adherent)	0.929	> 8 nM	0.98	> 500 nM	0.983	> 20000 nM
OPM-2 (myeloma, suspension)	0.986	> 8 nM	0.993	> 500 nM	0.993	> 20000 nM
OSC-19 (head and neck, adherent)	0.972	> 8 nM	0.983	> 500 nM	0.982	> 20000 nM
OVCAR-3 (ovary, adherent)	0.965	> 8 nM	0.985	> 500 nM	0.977	> 20000 nM
PANC-10-05 (pancreas, adherent)	0.945	> 8 nM	0.975	> 500 nM	0.982	> 20000 nM
PC-3 (prostate, adherent)	0.983	> 8 nM	0.981	> 500 nM	0.975	> 20000 nM
PCI-38 (head and neck, adherent)	0.983	> 8 nM	0.979	> 500 nM	0.987	> 20000 nM
PL18 (pancreas, adherent)	0.987	> 8 nM	0.987	> 500 nM	0.976	> 20000 nM
RD (rhabdomyosarcoma, adherent)	0.956	> 8 nM	0.983	> 500 nM	0.984	> 20000 nM
RERF-GC-1B (stomach, adherent)	0.968	> 8 nM	0.983	> 500 nM	0.981	> 20000 nM
RPMI-8226 (myeloma, suspension)	0.989	> 8 nM	0.977	> 500 nM	0.984	> 20000 nM
RT-112 (bladder, adherent)	0.873	> 8 nM	0.964	> 500 nM	0.984	> 20000 nM
SCC-15 (head and neck, adherent)	0.977	> 8 nM	0.976	> 500 nM	0.98	> 20000 nM
SK-CO-1 (large intestine, adherent)	0.986	> 8 nM	0.985	> 500 nM	0.971	> 20000 nM
SK-LU-1 (lung adenocarcinoma, adherent)	0.944	> 8 nM	0.979	> 500 nM	0.977	> 20000 nM
SK-MEL-28 (melanoma, adherent)	0.983	> 8 nM	0.987	> 500 nM	0.983	> 20000 nM
SK-N-DZ (neuroblastoma, adherent)	0.965	> 8 nM	0.987	> 500 nM	0.988	> 20000 nM
SN12C (kidney, adherent)	0.957	> 8 nM	0.974	> 500 nM	0.98	> 20000 nM
SNU-398 (liver, adherent)	0.984	> 8 nM	0.984	> 500 nM	0.983	> 20000 nM
SU-DHL-4 (B-cell lymphoma, suspension)	0.997	> 8 nM	0.997	> 500 nM	0.997	> 20000 nM
SU-DHL-6 (B-cell lymphoma, suspension)	0.995	> 8 nM	0.995	> 500 nM	0.995	> 20000 nM

The IC50 comes from the fitted curve, where viability falls to half of the control; a fit beyond the top or the lowest dose is shown as a bound at that dose. AUC is the area under the same curve over the 256-fold range up to the top dose, as a fraction: 1 means no effect, lower means more sensitive. A top dose marked as inferred was calculated from the reported fits.
